# Measurements taken from the supplement of paper PMC8728848.
# This is one part of the list.
# B1: XL-35 (Xenopus laevis) (protein)
# chain: MLVHILLLLVTGGLSQSCDPVVIVASKNMVKQLDCDKFRNCKEIKDSNEEAQDGIYTLTSPDGISYQTFCDMTTNGGGWTLVASVHENNMAGKCTIGDRWSSQQGNRADYPEGDGNWANYNTFGSAGGATSDDYKNPGYYDIEAYNLGVWHVPNKTPLSVWRNSSLQRYRTTDGILFKHGGNLFSLYRIYPVKYGIGSCSKDSGPTVPVVYDLGSANLTASFYSPGFRSQFTPGYIQFRPINTEKAALALCPGMKMESCNVEHVCIGGGGYFPEADPRQCGDFAAYDFNGYGTKKFNSAGIEITEAAVLLFYL
# Columns and labels:
# Experiment in all cases: glycan array binding signal (z-score within array); higher = stronger binding
# Details in all cases: glycan notation: IUPAC condensed, linker removed
# [1] = target: Fuc(a1-2)[Gal(a1-3)]Gal(b1-3)GlcNAc(b1-3)GalNAc
# How it was run: (§1)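 Glycan array binding is given as a within-array Z-score, which can be read as non-binding when negative. The arrays, 3228 of them, came from the Consortium for Functional Glycomics database and were retained only where the protein sequence was available. Z-scores were averaged across arrays of the same protein sequence at different concentrations or buffers and across linkers.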
# [2] = target: Fuc(a1-2)[Gal(a1-3)]Gal(b1-3)GlcNAc(b1-6)GalNAc
# How it was run: as §1
# [3] = target: Fuc(a1-2)[Gal(a1-3)]Gal(b1-4)Glc
# How it was run: as §1
# [4] = target: Fuc(a1-2)[Gal(a1-3)]Gal(b1-4)GlcNAc
# How it was run: as §1
# [5] = target: Fuc(a1-2)[Gal(a1-3)]Gal(b1-4)GlcNAc(b1-2)Man
# How it was run: as §1
# [6] = target: Fuc(a1-2)[Gal(a1-3)]Gal(b1-4)GlcNAc(b1-2)Man(a1-3)[Fuc(a1-2)[Gal(a1-3)]Gal(b1-4)GlcNAc(b1-2)Man(a1-6)]Man(b1-4)GlcNAc(b1-4)GlcNAc
# How it was run: as §1
# [7] = target: Fuc(a1-2)[Gal(a1-3)]Gal(b1-4)GlcNAc(b1-2)Man(a1-3)[Fuc(a1-2)[Gal(a1-3)]Gal(b1-4)GlcNAc(b1-2)Man(a1-6)]Man(b1-4)GlcNAc(b1-4)[Fuc(a1-6)]GlcNAc
# How it was run: as §1
# [8] = target: Fuc(a1-2)[Gal(a1-3)]Gal(b1-4)GlcNAc(b1-3)GalNAc
# How it was run: as §1
# [9] = target: Fuc(a1-2)[Gal(a1-3)]Gal(b1-4)GlcNAc(b1-3)[Fuc(a1-2)[Gal(a1-3)]Gal(b1-4)GlcNAc(b1-6)]GalNAc
# How it was run: as §1
# [10] = target: Fuc(a1-2)[Gal(a1-3)]Gal(b1-4)GlcNAc(b1-6)GalNAc
# How it was run: as §1
# [11] = target: Fuc(a1-2)[Gal(a1-3)]Gal(b1-4)[Fuc(a1-3)]Glc
# How it was run: as §1
# [12] = target: Fuc(a1-2)[Gal(a1-3)]Gal(b1-4)[Fuc(a1-3)]GlcNAc
# How it was run: as §1
# [13] = target: Fuc(a1-2)[Gal(a1-3)]Gal(b1-4)[Fuc(a1-3)]GlcNAc(b1-3)GalNAc
# How it was run: as §1
# [14] = target: Fuc(a1-2)[Gal(a1-4)]Gal(b1-4)GalNAc
# How it was run: as §1
# [15] = target: Fuc(a1-2)[Gal(a1-4)]Gal(b1-4)GlcNAc
# How it was run: as §1
# [16] = target: Fuc(a1-2)[GalNAc(a1-3)]Gal
# How it was run: as §1
# [17] = target: Fuc(a1-2)[GalNAc(a1-3)]Gal(b1-3)GalNAc(a1-3)[Fuc(a1-2)]Gal(b1-4)GlcNAc
# How it was run: as §1
# [18] = target: Fuc(a1-2)[GalNAc(a1-3)]Gal(b1-3)GalNAc(b1-3)Gal(a1-4)Gal(b1-4)Glc
# How it was run: as §1
# [19] = target: Fuc(a1-2)[GalNAc(a1-3)]Gal(b1-3)GlcNAc
# How it was run: as §1
# [20] = target: Fuc(a1-2)[GalNAc(a1-3)]Gal(b1-3)GlcNAc(b1-2)Man(a1-3)[Fuc(a1-2)[GalNAc(a1-3)]Gal(b1-3)GlcNAc(b1-2)Man(a1-6)]Man(b1-4)GlcNAc(b1-4)GlcNAc
# How it was run: as §1
# [21] = target: Fuc(a1-2)[GalNAc(a1-3)]Gal(b1-3)GlcNAc(b1-2)Man(a1-3)[Fuc(a1-2)[GalNAc(a1-3)]Gal(b1-3)GlcNAc(b1-2)Man(a1-6)]Man(b1-4)GlcNAc(b1-4)[Fuc(a1-6)]GlcNAc
# How it was run: as §1
# [22] = target: Fuc(a1-2)[GalNAc(a1-3)]Gal(b1-3)GlcNAc(b1-3)GalNAc
# How it was run: as §1
# [23] = target: Fuc(a1-2)[GalNAc(a1-3)]Gal(b1-3)GlcNAc(b1-6)GalNAc
# How it was run: as §1
# [24] = target: Fuc(a1-2)[GalNAc(a1-3)]Gal(b1-4)Glc
# How it was run: as §1
# [25] = target: Fuc(a1-2)[GalNAc(a1-3)]Gal(b1-4)GlcNAc
# How it was run: as §1
# [26] = target: Fuc(a1-2)[GalNAc(a1-3)]Gal(b1-4)GlcNAc(b1-2)Man
# How it was run: as §1
# [27] = target: Fuc(a1-2)[GalNAc(a1-3)]Gal(b1-4)GlcNAc(b1-2)Man(a1-3)[Fuc(a1-2)[GalNAc(a1-3)]Gal(b1-4)GlcNAc(b1-2)Man(a1-6)]Man(b1-4)GlcNAc(b1-4)GlcNAc
# How it was run: as §1
# [28] = target: Fuc(a1-2)[GalNAc(a1-3)]Gal(b1-4)GlcNAc(b1-2)Man(a1-3)[Fuc(a1-2)[GalNAc(a1-3)]Gal(b1-4)GlcNAc(b1-2)Man(a1-6)]Man(b1-4)GlcNAc(b1-4)[Fuc(a1-6)]GlcNAc
# How it was run: as §1
# [29] = target: Fuc(a1-2)[GalNAc(a1-3)]Gal(b1-4)GlcNAc(b1-3)Gal(b1-4)GlcNAc
# How it was run: as §1
# [30] = target: Fuc(a1-2)[GalNAc(a1-3)]Gal(b1-4)GlcNAc(b1-3)Gal(b1-4)GlcNAc(b1-3)Gal(b1-4)GlcNAc
# How it was run: as §1
# [31] = target: Fuc(a1-2)[GalNAc(a1-3)]Gal(b1-4)GlcNAc(b1-3)GalNAc
# How it was run: as §1
# [32] = target: Fuc(a1-2)[GalNAc(a1-3)]Gal(b1-4)GlcNAc(b1-3)[Fuc(a1-2)[GalNAc(a1-3)]Gal(b1-4)GlcNAc(b1-6)]GalNAc
# How it was run: as §1
# [33] = target: Fuc(a1-2)[GalNAc(a1-3)]Gal(b1-4)GlcNAc(b1-6)GalNAc
# How it was run: as §1
# [34] = target: Fuc(a1-2)[GalNAc(a1-3)]Gal(b1-4)[Fuc(a1-3)]GlcNAc
# How it was run: as §1
# [35] = target: Fuc(a1-2)[GalNAc(a1-3)]Gal(b1-4)[Fuc(a1-3)]GlcNAc(b1-3)GalNAc
# How it was run: as §1
# [36] = target: Fuc(a1-2)[GalNAc(a1-4)]Gal(b1-4)GlcNAc
# How it was run: as §1
# [37] = target: Fuc(a1-2)[GalNAc(b1-3)]Gal
# How it was run: as §1
binder,measurement,setting,value
B1,glycan array binding signal (z-score),[1],-0.477
same,glycan array binding signal (z-score),[2],-0.025
same,glycan array binding signal (z-score),[3],0.185
same,glycan array binding signal (z-score),[4],-0.007
same,glycan array binding signal (z-score),[5],-0.314
same,glycan array binding signal (z-score),[6],0.337
same,glycan array binding signal (z-score),[7],-0.409
same,glycan array binding signal (z-score),[8],-0.589
same,glycan array binding signal (z-score),[9],0.298
same,glycan array binding signal (z-score),[10],-0.256
same,glycan array binding signal (z-score),[11],-0.158
same,glycan array binding signal (z-score),[12],-0.202
same,glycan array binding signal (z-score),[13],0.089
same,glycan array binding signal (z-score),[14],-0.077
same,glycan array binding signal (z-score),[15],0.604
same,glycan array binding signal (z-score),[16],-0.015
same,glycan array binding signal (z-score),[17],0.405
same,glycan array binding signal (z-score),[18],-0.156
same,glycan array binding signal (z-score),[19],-0.315
same,glycan array binding signal (z-score),[20],-0.212
same,glycan array binding signal (z-score),[21],-0.189
same,glycan array binding signal (z-score),[22],0.124
same,glycan array binding signal (z-score),[23],-0.223
same,glycan array binding signal (z-score),[24],-0.179
same,glycan array binding signal (z-score),[25],-0.096
same,glycan array binding signal (z-score),[26],-0.318
same,glycan array binding signal (z-score),[27],-0.201
same,glycan array binding signal (z-score),[28],0.269
same,glycan array binding signal (z-score),[29],-0.423
same,glycan array binding signal (z-score),[30],-0.154
same,glycan array binding signal (z-score),[31],-0.308
same,glycan array binding signal (z-score),[32],-0.349
same,glycan array binding signal (z-score),[33],-0.235
same,glycan array binding signal (z-score),[34],-0.115
same,glycan array binding signal (z-score),[35],20.3
same,glycan array binding signal (z-score),[36],-0.131
same,glycan array binding signal (z-score),[37],-0.349
